The values below come from article PMC7925099, “Identification of an Antiretroviral Small Molecule That Appears To Be a Host-Targeting Inhibitor of HIV-1 Assembly” (Journal of Virology, 2021).

Molecules are shown by their SMILES.

This assay concerns HIV-1 NL4-3 RLuc Δenv virus pseudotyped with NL4-3 Env. In words: Inhibition of HIV-1 early events (single-round infection). The note with it: Human immunodeficiency virus 1, NL43, MT2, 48 h, read-out: EC50 for inhibition of HIV-1 early events.

As usually defined, the EC50 is the concentration at which the effect is half-maximal. For `COc1cc(C)c(/C=C/C2NCCc3cc(OCc4ccccc4)c(OC)cc32)cc1OCc1ccccc1` (stereo not shown) [PAV-117], the 50% effective concentration (EC50) turned out to be 930 nM.
